Laboratory results as given in PubChem BioAssay AID485294 (National Center for Advancing Translational Sciences (NCATS), 2010).
Among all 370,000 compounds or so, about 150 (0.041%) were called active. Inconclusive means that the source gave no clear call. Such entries were picked first, then a sample of the others. Calls follow the shape of the dose curve; as a rule, active = well fitted inhibition curve with a large enough effect; inconclusive = small, poorly fitted or top-dose-only effect; inactive = flat fitted curve, though single readings scatter. No potency is given beside an inconclusive call; the fits are too rough.

Each compound was assayed against Beta-lactamase (Escherichia coli (strain K12)) (UniProt P00811) (assay: qHTS Inhibitors of AmpC Beta-Lactamase (assay with detergent)). Conditions: AmpC hydrolysis of nitrocefin, absorbance 480 nm, 0.01% Triton; series mostly up to 114 µM.
Outline: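 AmpC (5.3 nM in the dispensed reagent) in 20 mM phosphate pH 7.0 with 0.01% (detergent screen) or 0.0001% Triton X-100 was preincubated with compounds for 15 min at room temperature. Nitrocefin was then added from an 800 uM solution, and hydrolysis was followed at 480 nm.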
Also: nearly all actives have a fitted effect of over 25% in size.
Potency is read from the fitted curve at half-maximal effect; tags tell the direction and shape of the fitted curve.

Chain of UniProt P00811 (P00811 whole entry, looked up): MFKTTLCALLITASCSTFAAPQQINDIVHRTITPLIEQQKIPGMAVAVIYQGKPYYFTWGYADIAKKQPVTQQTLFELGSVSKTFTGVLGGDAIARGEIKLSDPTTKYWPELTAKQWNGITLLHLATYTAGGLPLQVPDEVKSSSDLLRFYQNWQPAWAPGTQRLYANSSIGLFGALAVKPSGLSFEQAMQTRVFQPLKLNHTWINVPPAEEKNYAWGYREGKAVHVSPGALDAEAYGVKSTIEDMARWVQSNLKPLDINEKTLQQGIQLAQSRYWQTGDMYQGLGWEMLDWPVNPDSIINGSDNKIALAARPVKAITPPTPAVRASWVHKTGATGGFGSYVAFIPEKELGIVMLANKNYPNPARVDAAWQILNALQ

| Compound | Potency |
| --- | --- |
| Cc1oc(=O)c(NC(=O)c2ccccc2)cc1C(=O)c1ccccc1 | inactive |
| Cc1ccsc1C(=O)N1CCCC(N2CCN(c3cccc(Cl)c3)CC2)C1 (configuration not stated) | inactive |
| CC(C)C(=O)Nc1ccc(-c2csc(-c3ccccc3)n2)cc1 | inconclusive [inhibitor, full curve, poor fit] |
| COc1ccc2[nH]c3c(c2c1)CCN1C(=O)N([C@@H](C)C(=O)NCCc2ccc(OC)c(OC)c2)C(=O)[C@]31C | inconclusive [inhibitor, full curve, poor fit] |
| Cc1ccccc1-n1c(C)nnc1SCc1cc(=O)oc2ccc3ccccc3c12 | inconclusive [inhibitor, single point] |
| CCOC(=O)N1CCC(NC(=O)c2cc3ccccn3n2)CC1 | inconclusive [inhibitor, partial curve] |
| O=C(NC1C2CC3CC(C2)CC1C3)C1CC1 (configuration not stated) | inactive |
| Cc1cc(N)ccc1NC(=O)CN1CCCC1 | inactive |
| CN1C(=O)N(C)C2(CC1(C)C)CC(C)(C)N(C)C(=O)N2C | inconclusive [inhibitor, single point] |
| Cc1cc(C)n(-c2nc3c(c(=O)[nH]c(=O)n3C)n2Cc2ccc(F)cc2)n1 | inconclusive [inhibitor, full curve, poor fit] |
| COC(=O)C(C)n1cnc2c(nnn2-c2ccc(OC)cc2)c1=O (configuration not stated) | inconclusive [inhibitor, single point] |
| CC1(C)NC(=O)N(CC(=O)OCC(=O)Nc2sccc2C#N)C1=O | inconclusive [inhibitor, full curve] |
| O=C(COC(=O)C1CCCC1)Nc1ncc(Cl)cc1Cl | inconclusive [inhibitor, full curve] |
| Cc1cc(N(CN2CCCC2=O)C(=O)c2ccccc2)no1 | inconclusive [inhibitor, partial curve] |
| Cn1c(N2CCCCC2)nc2c1c(=O)n(Cc1cccc(Br)c1)c(=O)n2C | inactive |
| CC(NC(=O)C1CCN(C(=O)N2CCOc3ccc(Cl)cc32)CC1)c1ccccc1 (configuration not stated) | inactive |
| N#Cc1ccccc1NC(=O)COC(=O)c1ccc2c(c1)OCCO2 | inconclusive [inhibitor, full curve, poor fit] |
| COc1ccc(S(=O)(=O)n2nc(OC(=O)c3cccs3)cc2N)cc1 | inactive |
| CN(c1ccccc1)S(=O)(=O)c1ccc(C(=O)OCC(=O)N2CCOCC2)cc1 | inconclusive [inhibitor, partial curve] |
| Cc1ccc(NC(=O)c2cc(S(=O)(=O)N3CCOCC3)ccc2F)c(C)c1 | inconclusive [inhibitor, full curve, poor fit] |
| Cc1ccccc1C(=O)Nc1ccnn1C1CCN(Cc2ccccn2)CC1 | inconclusive [inhibitor, full curve, poor fit] |
| CCC1(c2ccccc2)NC(=O)N(CC(=O)Nc2ccc3c(C)cc(=O)oc3c2)C1=O (configuration not stated) | inconclusive [inhibitor, full curve, poor fit] |
| NS(=O)(=O)CCCc1ccccc1 | inconclusive [inhibitor, partial curve, poor fit] |

| Compound | Potency |
| --- | --- |
| COCCNC(=O)Cn1cnc2c(cnn2-c2ccc(C)cc2)c1=O | inconclusive [inhibitor, partial curve, poor fit] |
| CCCCn1c(Cn2nc(C(=O)O)c3ccccc3c2=O)nc2cc(S(N)(=O)=O)ccc21 | inconclusive [inhibitor, full curve, poor fit] |
| COc1cc(C)c(NC(=O)C(=S)NCCc2ccccc2)cc1C | inconclusive [inhibitor, full curve, poor fit] |
| O=C(Cc1cccs1)N1CCN(c2ccc(F)cc2)CC1 | inconclusive [inhibitor, partial curve, poor fit] |
| CCN(CC)C(=O)CSc1nnc(CNc2ccc(F)cc2)n1Cc1ccco1 | inconclusive [inhibitor, full curve] |
| CC1=NN(C(=O)c2ccc(Br)cc2)C(O)(C(F)(F)OC(F)(F)F)C1 (configuration not stated) | inactive |
| Nc1ccn(C2CC(O)C(CO)O2)c(=O)n1 (configuration not stated) | inconclusive [inhibitor, full curve, poor fit] |
| COc1cccc2c1[C@@H]1CN(CCCCn3c(=O)[nH]c4c(sc5ncc(-c6ccccc6)nc54)c3=O)C[C@@H]1CO2 | inconclusive [inhibitor, full curve, poor fit] |
| O=C(Nc1nnc(-c2ccc3c(c2)CCCC3)o1)c1ccc(Cl)cc1Cl | inconclusive [inhibitor, full curve, poor fit] |
| CCN1C(=O)[C@H]2[C@H]3[C@H](O)[C@H](O)C/C(=N\O[C@H](C)c4cn([C@H](CO)Cc5ccccc5)nn4)[C@@H]3CC[C@H]2C1=O | inconclusive [inhibitor, full curve] |
| O=C(CCNC(=O)c1ccc(Cl)cc1)NCC(c1ccco1)N1CCCC1 (configuration not stated) | inconclusive [inhibitor, full curve, poor fit] |
| COC(=O)c1ccc(NC(=O)Nc2ccc([N+](=O)[O-])cc2)cc1 | inconclusive [inhibitor, partial curve, poor fit] |
| COc1ccccc1NC(=O)c1ccc(NC(=O)COC(=O)c2ccc(O)cc2)cc1 | inactive |
| CC(C(=O)Nc1ccc(Br)cc1)N(C)CC(=O)NCc1ccco1 (configuration not stated) | inconclusive [inhibitor, partial curve, poor fit] |
| COc1ccc(C(=O)OCC(=O)c2ccc(Cl)s2)c(OC)c1OC | inconclusive [inhibitor, full curve, poor fit] |
| CC(=O)Nc1ccc(S(=O)(=O)NC(C)C(=O)OCC(=O)NC2CCCC2)cc1 (configuration not stated) | inconclusive [inhibitor, full curve, poor fit] |
| O=[N+]([O-])c1ccc2[nH]c(O)c(N=NC(=S)Nc3cccnc3)c2c1 | inconclusive [inhibitor, single point] |
| CCOC(=O)/C(=N/Nc1ccc(OC)cc1)N1CCCc2ccccc21 | inactive |
| O=c1c2ccccc2nc(/C=C/c2ccc(O)cc2)n1CCc1ccccc1 | inactive |
| O=[N+]([O-])c1ccc(CSc2nnc(SCc3ccccc3)s2)cc1 | inconclusive [inhibitor, partial curve, poor fit] |
| O=C(O)[C@@H](O)c1ccccc1 | inconclusive [inhibitor, full curve, poor fit] |
| c1ccc(-c2nnnn2-c2ccccc2)cc1 | inactive |
| CCOc1ccc(C2C(C#N)=C(N)Oc3cc(C)n(Cc4ccco4)c(=O)c32)cc1OC (configuration not stated) | inconclusive [inhibitor, single point] |

| Compound | Potency |
| --- | --- |
| CC(C)(C)NC(=S)NC(=O)C12CC3CCC(CC(C3)C1)C2 | inactive |
| Cc1ccc(OCC(=O)NC(=S)Nc2ccc3c4c(cccc24)CC3)cc1 | inconclusive [inhibitor, full curve, poor fit] |
| Cc1ccccc1NC(=O)Nc1ccc2nc(N3CCN(C)CC3)cc(C)c2c1 | inactive |
| COc1ccc(NC(=O)CSc2nnc(-c3cccnc3)o2)cc1 | inconclusive [inhibitor, single point] |
| Cc1[nH]n(-c2ccc([N+](=O)[O-])cc2)c(=O)c1C=NCCc1c(C)[nH]c2ccccc12 | inconclusive [inhibitor, partial curve] |
| Cc1cccc(Nc2nc(C)cc(C)c2C#N)c1 | inconclusive [inhibitor, partial curve, poor fit] |
| COc1cc2c(cc1OC)CN(CC(=O)Nc1ccccc1C(=O)NC1CC1)CC2 | inconclusive [inhibitor, single point] |
| O=C(O)C1C2C=CC(C2)C1C(=O)N1CCc2ccccc21 (configuration not stated) | inconclusive [inhibitor, full curve, poor fit] |
| C/C(CCc1oc2ccc(Cl)cc2c1-c1ccc(C)o1)=N\O | inactive |
| Cc1cc(C(=O)CN2C(=O)NC3(CCCCC3)C2=O)c(C)n1Cc1ccc2c(c1)OCO2 | inactive |
| CCOc1ccccc1N(C(=O)c1snc(C(N)=O)c1N)C(C(=O)NCc1ccccc1)c1ccc(O)cc1 (configuration not stated) | inconclusive [inhibitor, full curve] |
| Cc1[nH]c2ccccc2c1C(C[N+](=O)[O-])c1cccs1 (configuration not stated) | inconclusive [inhibitor, full curve] |
| CSc1nc2ccccc2n1CC(=O)Nc1ccccc1 | inconclusive [inhibitor, partial curve, poor fit] |
| Cc1nn(-c2ccccc2)c(Cl)c1C1C(C#N)=C(N)OC2=C1C(=O)CC(C)(C)C2 (configuration not stated) | inconclusive [inhibitor, full curve] |
| COc1ccc(NC(=O)CC2CC3CCC2C3)cn1 (configuration not stated) | inactive |
| Cc1ccc(S(=O)(=O)c2nc(NCCN(C)C)sc2Cl)cc1 | inconclusive [inhibitor, full curve, poor fit] |
| Cc1ccccc1C(=O)NC1CC2CCC(C1)N2Cc1ccccc1 (configuration not stated) | inactive |
| c1ccc2[nH]c(SCc3ccc(-c4nnco4)cc3)nc2c1 | inactive |
| Cc1cc(=O)[nH]c(COc2ccccc2)n1 | inactive |
| CCN1/C(=C/C(=O)c2ccco2)Sc2ccccc21 | inactive |
| CCN(CC)C(=O)Cn1c(=O)n(-c2ccc(CC(=O)NCc3ccccc3)cc2)c(=O)c2sccc21 | inconclusive [inhibitor, single point] |
